From the RNAGym collection of RNA variant scans (doi:10.1101/gad.245936.114)
Variants at the floor of the assay are shown more often than the library holds them.

B1: tRNA (parent)
chain: CUCUCGGUAGCCAAGUUGGUUUAAGGCGCAAGACUUUAAUUUAUCACUACGAAAUCUUGAGAUCGGGCGUUCGACUCGCCCCCGGGAGAUUUUUUCCUCGAGCAA

Variants of: B1
Experiment: nonsense suppression (GFP-seq) (ratio to wild type); higher = more function; SUP4oc tRNA, yeast GFP reporter sort-seq
How it was run: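 Yeast were grown in raffinose/galactose medium with 80 mg/L adenine, each strain bearing a genome-integrated ochre-suppressor tRNA variant from a ~3% random-mutation library, a galactose-driven GFP ochre reporter, and RFP. After sorting into GFP/RFP bins, every bin was sequenced on an Illumina platform at phred ≥30. The GFPSEQ value, a measure of nonsense suppression, is the weighted bin median GFP/RFP relative to the unmutated parent tRNA, using each variant's estimated cell share per bin as the weight. Only variants with ≥100 reads and ≥30 cells were included.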

Variant	nonsense suppression
G18C G32A	≤ 0.026
G18C G32C U70G A89C	≤ 0.026
G18C G59A	≤ 0.026
G18C G59C	≤ 0.026
G18C G61C G88C	≤ 0.026
G18C G66C	≤ 0.026
G18C G69A A74U G88A	≤ 0.026
G18C G88A	0.135
G18C U20C C27U C34U	≤ 0.026
G18C U21G A24C A33U U57C C75U	≤ 0.026
G18C U21G G67A	≤ 0.026
G18C U22C	≤ 0.026
G18C U55A	≤ 0.026
G18C U55A U58G U70A	≤ 0.026
G18C U55C	≤ 0.026
G18C U55C A89G	≤ 0.026
G18C U58A A62G	≤ 0.026
G18C U70G C75G	≤ 0.026
G18C U71A	≤ 0.026
G18C U76G	≤ 0.026
G18U A23C A33G C75U	≤ 0.026
G18U A23U C56A A60U	≤ 0.026
G18U A24C G69C	≤ 0.026
G18U A24G C68U U76C	≤ 0.026

Variant	nonsense suppression
G18U A30U C68U	≤ 0.026
G18U A31U C79G	≤ 0.026
G18U A33C	≤ 0.026
G18U A33C C68G	≤ 0.026
G18U A33G U55A C75A	≤ 0.026
G18U A33U	≤ 0.026
G18U A33U U35G	≤ 0.026
G18U A60U C79A	≤ 0.026
G18U A62C	≤ 0.026
G18U A74C A87U	≤ 0.026
G18U C27G	≤ 0.026
G18U C27G A62U	≤ 0.026
G18U C27G U35A	≤ 0.026
G18U C29G G73C	≤ 0.026
G18U C29U A33G U63G	≤ 0.026
G18U C34A G67C	≤ 0.026
G18U C34G U71C C72A	≤ 0.026
G18U C34U	≤ 0.026
G18U C34U A89G	≤ 0.026
G18U C56U C75A G88A	≤ 0.026
G18U C77G A89G	≤ 0.026
G18U C82U G86C	≤ 0.026
G18U G19C A23U G26U C34U A62C	≤ 0.026
G18U G19U	≤ 0.026

Variant	nonsense suppression
G18U G25A G78U	≤ 0.026
G18U G25U U70C	≤ 0.026
G18U G28C C80U	≤ 0.026
G18U G28C C80U A87G	≤ 0.026
G18U G61A	≤ 0.026
G18U G61U	≤ 0.026
G18U G66A C83A	≤ 0.026
G18U G69A	≤ 0.026
G18U G85A	≤ 0.026
G18U G86C	≤ 0.026
G18U G88A	≤ 0.026
G18U G88U	≤ 0.026
G18U U20C U35A A89C	≤ 0.026
G18U U20C U76G	0.264
G18U U20G A30C U57A G78A C80U G85U	≤ 0.026
G18U U20G G65C G66C	≤ 0.026
G18U U21A U57G	≤ 0.026
G18U U21G U57G G59A G61A C81G	≤ 0.026
G18U U22G A24U G25U G66C C79G G88U	≤ 0.026
G18U U55C	0.0402
G18U U55G	≤ 0.026
G18U U63A	≤ 0.026
G18U U76C G86U	≤ 0.026
G19A A23G U57G U71C	≤ 0.026

Variant	nonsense suppression
G19A A24C	≤ 0.026
G19A A24C G69C G85C	≤ 0.026
G19A A24U C34A	≤ 0.026
G19A A30G A31G U35G C75G	≤ 0.026
G19A A30G C79U	≤ 0.026
G19A A31G	0.0307
G19A A54G	≤ 0.026
G19A A60G	≤ 0.026
G19A C29A	≤ 0.026
G19A C29G U70G G85U	≤ 0.026
G19A C34A U58A	≤ 0.026
G19A C34G	≤ 0.026
G19A C72A	≤ 0.026
G19A C77G	≤ 0.026
G19A C77U	≤ 0.026
G19A C79U	≤ 0.026
G19A C80U	≤ 0.026
G19A G25A C27G	≤ 0.026
G19A G26U C27G	≤ 0.026
G19A G26U U63C	≤ 0.026
G19A G28C U63A	≤ 0.026
G19A G32U C34G G78U G86C	≤ 0.026
G19A G59A	≤ 0.026
G19A G59A A87G A89U	≤ 0.026

Variant	nonsense suppression
G19A G61U C64A	≤ 0.026
G19A G85C	≤ 0.026
G19A U20A U63A	≤ 0.026
G19A U20C G65U G69C G85A	≤ 0.026
G19A U21A	≤ 0.026
G19A U21A A23C	≤ 0.026
G19A U21C A24C G32U	≤ 0.026
G19A U57C G61A	≤ 0.026
G19A U57C U58A U70C	≤ 0.026
G19A U58A	≤ 0.026
G19A U63C C82A	≤ 0.026
G19A U63G	0.143
G19A U70A C83U	≤ 0.026
G19C A23C C56G G85U	≤ 0.026
G19C A24C	≤ 0.026
G19C A24G	≤ 0.026
G19C A30G C75G	≤ 0.026
G19C A30U	≤ 0.026
G19C A30U G85U A87G	≤ 0.026
G19C A30U U55C G85C	≤ 0.026
G19C A31C	≤ 0.026
G19C A31C A60C G86C	≤ 0.026
G19C A60G	≤ 0.026
G19C A62U	≤ 0.026

Variant	nonsense suppression
G19C A87U	≤ 0.026
G19C C27G A30G U58G U71C	≤ 0.026
G19C C27G A30U U55C	≤ 0.026
G19C C27G C72U A74C	≤ 0.026
G19C C29U G86U	≤ 0.026
G19C C34G A60C G61A C81G	≤ 0.026
G19C C34U U71C C82G	≤ 0.026
G19C C56A G69C C79G	≤ 0.026
G19C C56A U71G A74G	≤ 0.026
G19C C56U U57C	≤ 0.026
G19C C64G	≤ 0.026
G19C C75A C81G	≤ 0.026
G19C C77A	≤ 0.026
G19C C80A	≤ 0.026
G19C G25A C79U	≤ 0.026
G19C G25A G32A	≤ 0.026
G19C G32C	≤ 0.026
G19C G59A G61U G69U A89G	≤ 0.026
G19C G59C G66C	≤ 0.026
G19C G59C U63C	≤ 0.026
G19C G59C U71G	≤ 0.026
G19C G59U C72A	≤ 0.026
G19C G59U G85C	≤ 0.026
G19C G65A U71G	≤ 0.026

Variant	nonsense suppression
G19C G66A	≤ 0.026
G19C G66A G86A	≤ 0.026
G19C G66C	≤ 0.026
G19C G66U G86C	≤ 0.026
G19C G67C	≤ 0.026
G19C G78C	≤ 0.026
G19C U21A U63C	≤ 0.026
G19C U22C C68U	≤ 0.026
G19C U22C G78C	≤ 0.026
G19C U55G U58A	≤ 0.026
G19C U57A	≤ 0.026
G19C U57G	≤ 0.026
G19C U57G G66A	≤ 0.026
G19C U57G G66C C72A	≤ 0.026
G19C U63A	≤ 0.026
G19C U76C G88C	≤ 0.026
G19C U76G G86C	≤ 0.026
G19U A23G	≤ 0.026
G19U A23U C34A U63G	≤ 0.026
G19U A24C G65A	≤ 0.026
G19U A24U C34U U63G	≤ 0.026
G19U A30C	≤ 0.026
G19U A30C C72G	≤ 0.026
